Measured values published in the supplement of paper PMC3334620.
In all, about 33,000 sequences were measured (“E-score (-0.5 to 0.5)”: median about -0.043, highest 2% from about 0.37 on). Some of the results follow.

biological target: T1, Upc2 (UniProt Q12151); assay: PBM E-score (8-mer binding enrichment) (E-score (-0.5 to 0.5)); higher = stronger / more preferred TF binding; most listed sequences are background and not binding sites; conditions: protein concentration: 200 nM; construct: GST-full length
T1 sequence: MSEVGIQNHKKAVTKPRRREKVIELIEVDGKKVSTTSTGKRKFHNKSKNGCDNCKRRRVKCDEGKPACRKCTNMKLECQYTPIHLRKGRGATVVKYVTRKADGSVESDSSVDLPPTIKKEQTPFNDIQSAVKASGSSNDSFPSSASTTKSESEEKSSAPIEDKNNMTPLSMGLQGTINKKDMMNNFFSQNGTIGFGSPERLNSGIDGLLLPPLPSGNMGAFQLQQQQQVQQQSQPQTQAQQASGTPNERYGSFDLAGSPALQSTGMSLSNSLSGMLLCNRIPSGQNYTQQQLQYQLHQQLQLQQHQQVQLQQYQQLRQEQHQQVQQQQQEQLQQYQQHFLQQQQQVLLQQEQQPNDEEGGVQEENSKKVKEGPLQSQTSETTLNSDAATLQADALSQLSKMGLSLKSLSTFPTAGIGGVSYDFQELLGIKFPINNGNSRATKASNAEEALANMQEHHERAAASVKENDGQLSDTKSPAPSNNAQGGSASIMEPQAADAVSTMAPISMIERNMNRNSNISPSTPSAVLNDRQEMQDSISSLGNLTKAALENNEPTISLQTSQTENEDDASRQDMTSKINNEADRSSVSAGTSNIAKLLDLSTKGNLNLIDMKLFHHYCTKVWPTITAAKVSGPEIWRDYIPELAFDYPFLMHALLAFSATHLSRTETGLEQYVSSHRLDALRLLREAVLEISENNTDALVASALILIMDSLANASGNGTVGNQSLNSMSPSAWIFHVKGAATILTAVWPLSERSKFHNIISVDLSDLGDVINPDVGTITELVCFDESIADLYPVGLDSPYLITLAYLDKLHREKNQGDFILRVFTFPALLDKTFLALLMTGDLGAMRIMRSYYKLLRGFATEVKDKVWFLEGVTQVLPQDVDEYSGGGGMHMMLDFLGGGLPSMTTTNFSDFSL
Summary of the method: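 Each ungapped eight-base word and its reverse complement, pooled, received an E-score from the Universal PBM Analysis Suite. Underlying scans, normalised with masliner, recorded fluorescent anti-GST bound to GST-tagged yeast transcription factors. These were applied at about 100-200 nM to universal all-10-mer Agilent arrays double-stranded by primer extension.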

Sequence | PBM E-score
ATTAGCAG | -0.108
AGTTTCGA | -0.0693
CCATTGGC | -0.329
AGACCTGG | -0.256
TCATTAGA | 0.0189
TCGCGCCA | -0.249
ATTACTAC | 0.12
ACAGCCGT | 0.109
CGTAGGAA | 0.144
ATTACCGG | -0.197
TCTAGTAA | -0.148
CATCCTGG | -0.153
ATGGATGG | -0.102
CGGCTCGA | 0.0304
AACCCCAG | -0.275
AACTGCGA | -0.0449
ATTTTTCC | 0.17
CTGGAAGA | -0.149
AACCCCCG | -0.138
GCTGCTGA | -0.0134
AGGTGCGA | 0.0768
AGAAAGAA | 0.0569

Sequence | PBM E-score
CAAGCTGG | -0.157
TAGATAGA | -0.103
TCATTCGA | -0.0636
CCAACGCC | -0.159
ATTGCAAC | -0.00203
AAACCGGG | -0.0509
TACTGATA | 0.144
AGTCACAC | -0.309
CTTTTTGC | -0.065
AGATGTAG | -0.265
ATTTAGAC | 0.00862
GCGCGTAA | 0.272
CTAGTTCA | -0.048
AGGGATAG | -0.143
AGATCGGC | -0.205
AACTTTCA | 0.0447
CTGACCGA | 0.16
GCTCTCCA | -0.312
AAAGAACC | -0.0458
GCAGCGTA | 0.182
AAAGGCCT | -0.15
AGGACACG | -0.0442

Sequence | PBM E-score
AATTATCA | 0.0257
AACTGGAC | -0.116
ATACGCAA | 0.37
ACTGGGGA | -0.196
AGTCTTGA | -0.304
AAGAAGCG | -0.0452
CGATTCAC | 0.0105
GAACGAGC | 0.465
AGGGTCGC | -0.0118
AATAAGCA | -0.0284
CCGGGCTC | -0.104
ACGCCAAG | 0.0663
GATGGTGA | -0.143
CCCACCAC | -0.0738
AACCTCCA | -0.169
GACTGCGA | -0.259
GCGGGAAC | 0.0362
ATGCCTAA | -0.192
CTAACGTC | -0.127
CGCTGGAG | -0.0143
CACGAACG | 0.343
ACCGCCTG | -0.234

Sequence | PBM E-score
ATCTACCA | -0.0611
GAGTGACA | -0.0634
GAGGACTA | -0.136
CTGCGTCC | -0.13
CAATCGGG | -0.114
GGCTTTAA | -0.0321
ATCGTGAG | -0.165
CGCGTCAA | 0.0382
ATACTAAA | 0.216
AGCCAAAC | 0.141
CGAATCTC | 0.195
ATCCTGTA | 0.146
AGCAAATG | -0.15
GGCATTAC | -0.107
TAGAGACA | -0.0532
GAGATCTC | 0.31
CACGAGGA | 0.0675
CCGAGCTA | 0.0202
CATGCAAG | -0.253
AGATGAGC | -0.0614
